From PubChem BioAssay AID1458 (National Center for Advancing Translational Sciences (NCATS), 2008)
Hit rate of the full screen: of about 210,000 compounds, about 5,900 (2.8%) were called active. Inconclusive means that the source gave no clear call. Such entries were picked first, then a sample of the others. Calls come from the whole dose curve; as a rule, active = well fitted activation curve with a large enough effect; inconclusive = small, poorly fitted or top-dose-only effect; inactive = no such curve, though single readings can be large or run the other way. A potency beside an inconclusive call is a rough fit, not a confirmed value.

test: qHTS Assay for Enhancers of SMN2 Splice Variant Expression; conditions: HEK293 SMN2-luciferase splicing reporter, luminescence, 30-36 h; activity change, positive = activation: at 46.1 µM (top of the series); note: nearly all actives have a fitted effect of over 55% in size; for activity change, positive = activation: % of control where 0% means no effect
How it was run: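 HEK293 cells carry an SMN2 minigene-luciferase reporter in which exon 7 inclusion puts luciferase in frame. Cells were seeded at 2000 cells/well, attached for 10-12 hours, then exposed to compounds for 30-36 hours at 37C before ONE-Glo luminescence.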
Potency is the fitted concentration of half-maximal effect; tags give direction and shape of the fitted curve.

Row | SMILES | Potency | activity change, positive = activation
1 | Cc1cc(C)nc(Nc2nc(=O)c3ccccc3s2)n1 | inconclusive: 35.5 µM [activator, single point] | –
2 | C=CCn1c(C)cc(C2=NNC(=Nc3ccc(C)cc3)SC2)c1C | – | inactive: 21.3%
3 | CCOc1cc(/C=C2/COc3ccccc3C2=O)ccc1OCC(=O)N(C)C | – | inactive: -54%
4 | Cc1ccc(-c2nc(N3CCOCC3)sc2C(=O)N2CCOCC2)cc1 | – | inactive: 11.4%
5 | Cc1nn(-c2ccccc2)c2sc(C(=O)N3CCCCC3)cc12 | inconclusive: 3.98 µM [activator, partial curve] | –
6 | CC(=O)CC(C)(C)n1nnc(-c2ccccc2)n1 | inconclusive: 0.0224 µM [activator, full curve, poor fit] | –
7 | CN=Cc1cc(-c2ccccc2)sc1O | inconclusive: 28.2 µM [activator, single point] | –
8 | COc1cccc(C2C=C(c3cccs3)Nc3ncnn32)c1OC (stereo unspecified) | inconclusive: 2.82 µM [activator, partial curve] | –
9 | COC(=O)COc1ccc2c(-c3cccc([N+](=O)[O-])c3)cc(=O)oc2c1 | inconclusive: 35.5 µM [activator, single point] | –
10 | Cc1ccc2[nH]c3c(NCc4ccco4)ncnc3c2c1 | – | inactive: -62.6%
11 | C=CCCC(=O)Nc1nc(C)c(-c2csc(Nc3cc(OC)ccc3OC)n2)s1 | – | inactive: -42.9%
12 | COc1ccc(CNC(=O)C2CC(c3ccc(OC)cc3)=NO2)cc1 (stereo unspecified) | – | inactive: 1.47%
13 | O=C(c1cc(-c2cccs2)on1)N1CCN(c2ccc(F)cc2)CC1 | – | inactive: -52.6%
14 | O=c1c(-c2cccc(F)c2)nc2cncnc2n1-c1ccccc1 | – | inactive: -15.2%
15 | O=C(Nc1ccon1)c1sc2ccccc2c1Cl | active: 17.8 µM | –
16 | Cc1nn(CCOc2ccccc2)c(=O)n1-c1ccccc1F | active: 17.8 µM | –
17 | O=C(CC(c1ccco1)S(=O)(=O)c1ccccc1)c1ccc(F)cc1 (stereo unspecified) | – | inactive: 12.8%
18 | Cc1ccc(-c2nc3c(C)cccn3c2Nc2ccccc2C)s1 | inconclusive: 4.47 µM [activator, partial curve] | –
19 | CCn1ccc(C(=O)Nc2ccc(Cl)cn2)n1 | inconclusive: 31.6 µM [activator, single point] | –
20 | COc1ccc(-c2c(C#N)c(N)nc3c2CCc2ccccc2-3)cc1OC | inconclusive: 14.1 µM [activator, single point] | –
21 | CC(=O)Oc1cc(C(F)(F)F)ccc1C(=O)O | – | inactive: -4.7% [at 20.6 µM]
22 | CCCCCn1c(=O)[nH]c2cc(C(=O)N3CCN(c4cc(Cl)ccc4C)CC3)ccc2c1=O | – | inactive: 0.639%
23 | CC(=C/c1ccccc1)/C=N/NC(=O)c1cnccn1 | inconclusive: 12.6 µM [activator, partial curve, poor fit] | –
24 | CCC(=O)Nc1ccccc1C(=O)C(=O)Nc1ccccc1 | inconclusive: 14.1 µM [activator, partial curve, poor fit] | –
25 | BrCCOCCOc1ccc2ccccc2c1 | inconclusive: 35.5 µM [activator, single point] | –
26 | Cc1cccc(NC(=O)c2cnc3sccn3c2=O)c1C | active: 5.62 µM | –

Row | SMILES | Potency | activity change, positive = activation
27 | CCn1nnnc1SCC(=O)Nc1nc(C)c(C)s1 | inconclusive: 17.8 µM [activator, partial curve] | –
28 | CC(=O)OC1=Cc2c(ccc3ccc(=O)oc23)OC1(C)C | inconclusive: 0.0035 µM [activator, full curve, poor fit] | –
29 | O=C1C2CC=CCC2C(=O)N1c1n[nH]c(CCc2ccccc2)n1 (stereo unspecified) | inconclusive: 0.02 µM [activator, full curve, poor fit] | –
30 | C(=N\Nc1nc2ccccc2s1)/c1ccco1 | active: 1.58 µM | –
31 | Cc1cccc(CN2CCc3c(OCC(=O)NCc4ccco4)cccc3C2=O)c1 | inconclusive: 5.01 µM [activator, single point] | –
32 | Cc1onc(-c2ccccc2Cl)c1C(=O)OCC(=O)Nc1cccc(S(=O)(=O)N(C)C)c1 | – | inactive: -34.5%
33 | O=C(NCc1ccccc1)C12CC3CC(CC(C3)C1)C2 | – | inactive: -8.18%
34 | O=C(Nc1cccnc1)Nc1ccc(Cl)cc1Cl | – | inactive: 14.4%
35 | COc1ccccc1CNC(=O)Cn1ncc2c(C)n(Cc3ccccc3Cl)c(C)c2c1=O | – | inactive: -14.8%
36 | Cc1ccc(-c2ccc(CCC(=O)O)n2-c2ccc(C(C)C)cc2)cc1 | – | inactive: -5.81%
37 | C(=N\Nc1nnnn1-c1ccccc1)/c1ccncc1 | inconclusive: 4.47 µM [activator, partial curve, poor fit] | –
38 | Cn1c(=N)n(CC(=O)c2ccc(Br)s2)c2ccccc21 | inconclusive: 25.1 µM [activator, single point] | –
39 | CSc1cccc(NC(=O)/C=C/c2cccc(Cl)c2)c1 | active: 14.1 µM | –
40 | Cn1ncc(C#N)c1/N=C/N1CCCCC1 | inconclusive: 6.31 µM [activator, single point] | –
41 | CCc1cc2c3c(c(=O)oc2cc1O)CCCC3 | inconclusive: 20 µM [activator, partial curve] | –
42 | Cc1cc(=O)oc2cc(NC(=S)NCc3ccccn3)ccc12 | – | inactive: 14%
43 | O=C1c2ccccc2C(=O)N1CC1c2ccccc2CCN1C(=O)N1CCOCC1 (stereo unspecified) | inconclusive: 3.55 µM [activator, full curve, poor fit] | –
44 | CC1CCCN(C(C(=O)NC2CCCCC2)c2cc3c(cc2[N+](=O)[O-])OCO3)C1 (stereo unspecified) | inconclusive: 0.0079 µM [activator, full curve, poor fit] | –
45 | CC1Cc2ccccc2N1C(=O)/C=C/c1cccc(F)c1 (stereo unspecified) | active: 11.2 µM | –
46 | CC(=O)c1nn(-c2ccc(OC(F)(F)F)cc2)nc1Nc1ccccc1 | inconclusive: 1.78 µM [activator, full curve] | –
47 | COc1ccc(-c2nc(NC(=O)CSc3nnc(C)s3)ns2)cc1 | inconclusive: 11.2 µM [activator, partial curve, poor fit] | –
48 | Cc1cc(NC(=O)c2ccc3c(c2)OCO3)no1 | active: 11.2 µM | –
49 | CN(C)S(=O)(=O)c1ccc(-c2cn3ccccc3n2)cc1 | inconclusive: 15.8 µM [activator, single point] | –
50 | CCSc1nnc(NC(=O)c2ccco2)s1 | active: 11.2 µM | –
51 | Oc1ccc(-c2nnc(SCC3CCCCC3)o2)cc1 | inconclusive: 14.1 µM [activator, single point] | –
